The list shows a part of the results.

The assay relates to PF3D7_0420300 AP2 domain 1 (GST-tagged). The experiment in a line: gcPBM binding intensity (ln(normalized median fluorescence intensity)); higher = stronger DNA binding. In outline:
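DNA-binding domains from P. falciparum, fused to GST and produced in E. coli, were put on an Agilent 4 × 180k double-stranded probe array for 1 h in 1× PBS holding 1% milk, 0.2 mg/ml BSA, 0.5% salmon testes DNA and 0.03% Triton X-100. Probes were primer-extended, 36 bp long and drawn from intergenic genomic regions, with negative controls included. After Alexa488 anti-GST antibody detection and a 488 nm scan, binding intensity was set as the highest Masliner-normalised natural-log median intensity across replicate spots of either probe orientation.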
For the sequence “ATATATCACATGAACATTAAAAAAAAAAAAGAGGGG [TGCATGCA_negctrl_site187]”, the “gcPBM binding intensity (ln)” value turned out to be 9.63.
The same measure for “GGAACATATGAACTCACACACATTTTCACTTAAATA [CACACA_site3684]”: 9.64; for “TTTATACAATTAGACACACACAAAAAGTATAAATAT [CACACA_site6637]”: 9.77; for “ATATCACATTCCACGGTACACACTAATAGAAAAATC [CACACA_site9204]”: 9.65.
On to “AAACCTTTAGAAAATCGTACAAAACATAACCACCTA [XGTACX_site1098]”, for which the “gcPBM binding intensity (ln)” value is 9.32.
In the case of “ATTTTTTTTTTTTGTTTTTTCTTACAAATTAAATGA [CACACA_negctrl_site1457]”, the “gcPBM binding intensity (ln)” value worked out at 9.25.
The result for “AAACAAAAGTAGAAGGTAGAGTATTTTATATTTAAA [GTGCAC_negctrl_site503]” reads 9.13; that for “AAATAACTCATGGGTTGTACTTAAAAAAAAAAAGAT [XGTACX_site4168]”, 9.52; that for TTTTTTTTTTTTCACGTGCACTATACATATAAGTAA, 9.2.
For the sequence “CTCTTGTCATTTTGCACACACACATGGATAGGTTAT [CACACA_site5655]”, the “gcPBM binding intensity (ln)” value came out at 10.2.
For “ATATATACATTTCTATGTACATATGTATATATGTAT [XGTACX_site1522]”, the “gcPBM binding intensity (ln)” value amounted to 9.15.
Take “TTAATCTAGAGAAATTGTACATTTTATTAACACAAT [XGTACX_site1190]”: the “gcPBM binding intensity (ln)” value amounted to 8.99.
Consider “ATAAAAGAAAACAATAGTACTTTAGTTTTTCTTTTT [XGTACX_site5686]”, for which the “gcPBM binding intensity (ln)” value was determined as 9.02.
For the sequence “ACTACATAAAATGACACACACAAACTTTAAAATTTA [CACACA_site3474]”, the “gcPBM binding intensity (ln)” value was determined as 9.7.
The result for “CACCTGCACGATTGCACACAAATATGTTTTGAAGAT [CACACA_site2103]” reads 9.48; that for “TATATTTGGAAACACACACACAAAAAAAAAAAAAAA [CACACA_site2474]”, 9.63.
Regarding “ATATTTTCTAATCAATGTACTTATTCTACACATTAA [XGTACX_site5774]”, the “gcPBM binding intensity (ln)” value was 9.33.
As for ATATTTTATGTAAAGGTGCAAAACAACATTAAAAAA, the “gcPBM binding intensity (ln)” value came to 9.31.
For “TAAAACATGTTTTTATATATTATTATTATATTTATA [XGTACX_negctrl_site8]”, the “gcPBM binding intensity (ln)” value is 9.18.
Regarding “ACCCAATTTTTTAGTACACACATATAAATATATAAA [CACACA_site4944]”, the “gcPBM binding intensity (ln)” value was determined as 9.39.
In the case of “AACACATACAGACACACACACAAAAAAAAAAAAAAA [CACACA_site6322]”, the “gcPBM binding intensity (ln)” value came to 9.65.
“AAAAAAAAAAGACACACACACAAATACAAATGGTAA [CACACA_site6906]”: the “gcPBM binding intensity (ln)” value worked out at 10.1.
Turning to “TTTGTTATATTTAATACACACATATTATAAACCCAT [CACACA_site3716]”, the “gcPBM binding intensity (ln)” value worked out at 9.51.
In the case of “ATAAAGCCATACAATACACACATTTTACATGGCTGT [CACACA_site5756]”, the “gcPBM binding intensity (ln)” value was found to be 9.53.
In the case of “TAAAATTAGGAAATTGCACACAAAAAAAAACATATT [CACACA_site9349]”, the “gcPBM binding intensity (ln)” value came to 9.69.
Take “ATACATATATATATATGTACACACATTAATAAAAAA [XGTACX_site6874]”: the “gcPBM binding intensity (ln)” value turned out to be 9.41.
“TATATTTTAGTTAATGCATGTGTGCATCCATTTAAA [TGCATGCA_site887]”: the “gcPBM binding intensity (ln)” value worked out at 9.1.
Turning to “TATAAATAAATTTATACACACACACCCATATATATA [CACACA_site8183]”, the “gcPBM binding intensity (ln)” value turned out to be 10.
“TACCAAAATAGACACACACACAAAATATGTAAATAT [CACACA_site6963]”: the “gcPBM binding intensity (ln)” value came out at 10.2.
For “ATCTAGCCATTTTTTAGTACACATAAATAAAAAAAA [XGTACX_site1257]”, the “gcPBM binding intensity (ln)” value was determined as 8.96.
“CATTAATAACAAAGTTGTACAAGATAATATTATATG [XGTACX_site6832]”: the “gcPBM binding intensity (ln)” value is 9.27.
Consider “TTTTATTTGACAAGCACACACTTAAATATATTTATA [CACACA_site7557]”, for which the “gcPBM binding intensity (ln)” value amounted to 9.26.
On to “AAAACATTTTCAAACTGTACACATAGAACTATGCAT [XGTACX_site4087]”, for which the “gcPBM binding intensity (ln)” value is 9.24.
On to “ACATAAGAAGTTATATGTACATATATTTTTTAAATT [XGTACX_site8078]”, for which the “gcPBM binding intensity (ln)” value came out at 9.19.
On to “TAAACAAAATATATATGTACATATATATATATATAT [XGTACX_site6502]”, for which the “gcPBM binding intensity (ln)” value came out at 9.14.
In the case of “CATATATAAATCATGTGTACGTATTGAGTATCTACT [XGTACX_site6278]”, the “gcPBM binding intensity (ln)” value was 9.43.
For the sequence “AGGATATATAATTAAGTGCATTAATTCAAAATAAAA [GTGCAC_site9702]”, the “gcPBM binding intensity (ln)” value was 9.17.
The same measure for “ATAAGATATGTATATACACACATTTATTTACCTATA [CACACA_site7521]”: 9.59; for “TTATTATTTTATAACACACACATATATATTATATCT [CACACA_site1434]”: 9.64; for ATATGACTTAAATATGTGCGCATTTTTTTTTTTTTT: 9.21.
For “TACACAAGAAAATTCACACACACACGGATATTTATA [CACACA_site7765]”, the “gcPBM binding intensity (ln)” value amounted to 10.2.
Turning to “ACGTACTGCCCTAAAGTGCATATATAATATAAACGA [GTGCAC_site9911]”, the “gcPBM binding intensity (ln)” value amounted to 9.
The same measure for “GTATCGAAGTAAATACGTACTTAAATATGTTTAAAA [XGTACX_site1353]”: 8.9; for “GTATTTTAATATAAATGTACATAAATGTTATATATA [XGTACX_site3475]”: 9.12.
Consider “AATATTGTATATAATAAACACACAATATTAAAAATA [CACACA_site8262]”, for which the “gcPBM binding intensity (ln)” value was 9.49.

For the origin of these results see the supplement of paper PMC11417369.
